From patent US20110159513A1 (MERRIMACK PHARMACEUTICALS, published 2011)

Target: ErbB3 on tumour cells (NCI-ADRr, OVCAR8, OVCAR8-HER2) (UniProt P21860 20-1342, limits assumed)
Test: cell-based or functional assay

B1: bispecific antibody H3×B1D2 (bispecific antibody)
chain: QVQLQESGGGLVKPGGSLRLSCAASGFTFSSYWMSWVRQAPGKGLEWVANINRDGSASYYVDSVKGRFTISRDDAKNSLYLQMNSLRAEDTAVYYCARDRGVGYFDLWGRGTLVTVSSASTGGGGSGGGGSGGGGSQSALTQPASVSGSPGQSITISCTGTSSDVGGYNFVSWYQQHPGKAPKLMIYDVSDRPSGVSDRFSGSKSGNTASLIISGLQADDEADYYCSSYGSSSTHVIFGGGTKVTVLGAAS[about 600 residues skipped]AAALQVQLVQSGAEVKKPGESLKISCKGSGYSFTSYWIAWVRQMPGKGLEYMGLIYPGDSDTKYSPSFQGQVTISVDKSVSTAYLQWSSLKPSDSAVYFCARHDVGYCTDRTCAKWPEWLGVWGQGTLVTVSSGGGGSSGGGSGGGGSQSVLTQPPSVSAAPGQKVTISCSGSSSNIGNNYVSWYQQLPGTAPKLLIYDHTNRPAGVPDRFSGSKSGTSASLAISGFRSEDEADYYCASWDYTLSGWVFGGGTKLTVLG
IC50 (printed as DR50data): inhibition of HRG-induced pErbB3 in OVCAR8 cells, ELISA, 5 nM HRG, 10 min lysis: 1.7e-09 M
